# In publication PMC10407929:
# Values joined by “and” are separate entries in the source; they are usually repeats but may differ in a detail not shown here. Equal values may be shown once. Some of the results follow. The protein was read in a cell extract, so binding may be indirect.
# Tests used:
# Experiment in all cases: pull-down
# Conditions in all cases: 150 mM NaCl, 50 mM Tris pH 8.0, 0.25% NP-40, 1 mM DTT; 4 C, 2 h; 100 ug nuclear extract; double strand, one strand shown
# RFC1 (Homo sapiens) = biological target: T1, RFC1 (Homo sapiens) (UniProt P35251)
# T1 sequence: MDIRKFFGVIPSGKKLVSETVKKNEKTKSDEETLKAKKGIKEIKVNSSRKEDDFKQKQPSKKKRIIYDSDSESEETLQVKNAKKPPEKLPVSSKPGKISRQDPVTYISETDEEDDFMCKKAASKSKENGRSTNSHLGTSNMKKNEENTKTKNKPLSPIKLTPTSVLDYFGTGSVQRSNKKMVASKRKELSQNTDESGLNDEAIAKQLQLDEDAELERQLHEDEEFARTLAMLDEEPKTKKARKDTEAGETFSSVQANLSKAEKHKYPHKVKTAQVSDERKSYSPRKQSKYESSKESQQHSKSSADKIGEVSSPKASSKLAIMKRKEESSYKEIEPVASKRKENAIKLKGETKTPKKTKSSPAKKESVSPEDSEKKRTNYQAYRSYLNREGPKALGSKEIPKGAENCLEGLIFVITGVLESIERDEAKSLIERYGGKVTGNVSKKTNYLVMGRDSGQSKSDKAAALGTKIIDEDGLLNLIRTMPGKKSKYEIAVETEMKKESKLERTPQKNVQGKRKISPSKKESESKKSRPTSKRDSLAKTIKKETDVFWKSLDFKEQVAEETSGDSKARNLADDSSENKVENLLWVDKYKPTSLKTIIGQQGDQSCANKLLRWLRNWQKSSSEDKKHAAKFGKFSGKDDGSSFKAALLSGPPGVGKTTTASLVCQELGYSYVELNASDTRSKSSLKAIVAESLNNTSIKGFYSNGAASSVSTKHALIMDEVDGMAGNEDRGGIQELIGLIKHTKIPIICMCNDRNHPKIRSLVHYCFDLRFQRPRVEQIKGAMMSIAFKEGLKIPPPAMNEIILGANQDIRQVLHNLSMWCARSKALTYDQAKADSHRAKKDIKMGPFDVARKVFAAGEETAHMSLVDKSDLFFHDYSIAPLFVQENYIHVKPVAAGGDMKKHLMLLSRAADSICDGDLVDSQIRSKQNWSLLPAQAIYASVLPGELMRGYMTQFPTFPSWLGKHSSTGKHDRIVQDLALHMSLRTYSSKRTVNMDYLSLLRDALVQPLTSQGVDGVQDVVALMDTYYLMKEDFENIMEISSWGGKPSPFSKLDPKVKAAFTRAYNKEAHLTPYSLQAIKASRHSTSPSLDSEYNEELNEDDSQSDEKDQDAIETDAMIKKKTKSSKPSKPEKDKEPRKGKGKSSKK
# RFC2 (Homo sapiens) = RFC2 (Homo sapiens) (UniProt P35250)
# RFC4 (Homo sapiens) = RFC4 (Homo sapiens) (UniProt P35249)
# RFC5 (Homo sapiens) = RFC5 (Homo sapiens) (UniProt P40937)
# RPA1 (Homo sapiens) = RPA1 (Homo sapiens) (UniProt P27694)
# RPL27 (Homo sapiens) = RPL27 (Homo sapiens) (UniProt P61353)
# RAD23B (Homo sapiens) = RAD23B (Homo sapiens) (UniProt P54727)
# RMI1 (Homo sapiens) = RMI1 (Homo sapiens) (UniProt Q9H9A7)
# UniProt Q9H9A7, sequence (Q9H9A7 whole entry): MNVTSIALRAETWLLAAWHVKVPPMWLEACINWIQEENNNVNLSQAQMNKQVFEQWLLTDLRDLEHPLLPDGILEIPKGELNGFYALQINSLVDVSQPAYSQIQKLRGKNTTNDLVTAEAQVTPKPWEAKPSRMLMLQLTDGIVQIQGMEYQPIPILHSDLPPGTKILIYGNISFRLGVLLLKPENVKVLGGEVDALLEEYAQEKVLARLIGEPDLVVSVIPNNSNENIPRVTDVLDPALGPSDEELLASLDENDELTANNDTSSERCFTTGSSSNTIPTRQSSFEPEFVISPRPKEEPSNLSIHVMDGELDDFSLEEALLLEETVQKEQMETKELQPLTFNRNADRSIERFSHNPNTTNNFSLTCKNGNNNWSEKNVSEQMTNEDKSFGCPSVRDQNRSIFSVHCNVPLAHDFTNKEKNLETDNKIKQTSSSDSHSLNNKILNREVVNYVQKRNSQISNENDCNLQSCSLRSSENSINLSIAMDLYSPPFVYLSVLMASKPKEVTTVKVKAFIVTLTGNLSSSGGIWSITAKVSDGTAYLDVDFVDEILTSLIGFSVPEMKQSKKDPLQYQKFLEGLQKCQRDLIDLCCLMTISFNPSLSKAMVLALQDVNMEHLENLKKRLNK
# UniProt P35249, sequence (P35249 whole entry): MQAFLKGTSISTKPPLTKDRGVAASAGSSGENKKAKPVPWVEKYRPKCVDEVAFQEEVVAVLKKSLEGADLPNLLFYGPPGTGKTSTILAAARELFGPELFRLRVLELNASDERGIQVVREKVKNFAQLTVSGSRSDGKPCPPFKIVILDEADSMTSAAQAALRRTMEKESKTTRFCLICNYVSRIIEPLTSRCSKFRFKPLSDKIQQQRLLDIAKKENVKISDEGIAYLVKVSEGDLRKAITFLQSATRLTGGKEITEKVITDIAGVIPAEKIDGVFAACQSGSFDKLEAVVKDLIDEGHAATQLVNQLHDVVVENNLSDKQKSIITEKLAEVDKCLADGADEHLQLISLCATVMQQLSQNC
# UniProt P54727, sequence (P54727 whole entry): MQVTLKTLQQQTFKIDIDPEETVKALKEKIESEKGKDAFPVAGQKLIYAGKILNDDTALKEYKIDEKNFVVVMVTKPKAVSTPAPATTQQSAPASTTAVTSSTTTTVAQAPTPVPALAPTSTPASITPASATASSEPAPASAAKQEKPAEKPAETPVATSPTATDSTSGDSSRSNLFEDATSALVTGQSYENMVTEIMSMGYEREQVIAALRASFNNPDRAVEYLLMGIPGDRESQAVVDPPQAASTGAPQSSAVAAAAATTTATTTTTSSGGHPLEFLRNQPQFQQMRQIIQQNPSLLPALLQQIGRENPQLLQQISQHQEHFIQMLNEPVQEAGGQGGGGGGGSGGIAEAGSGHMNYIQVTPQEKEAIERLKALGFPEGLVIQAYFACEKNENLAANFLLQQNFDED
# UniProt P40937, sequence (P40937 whole entry): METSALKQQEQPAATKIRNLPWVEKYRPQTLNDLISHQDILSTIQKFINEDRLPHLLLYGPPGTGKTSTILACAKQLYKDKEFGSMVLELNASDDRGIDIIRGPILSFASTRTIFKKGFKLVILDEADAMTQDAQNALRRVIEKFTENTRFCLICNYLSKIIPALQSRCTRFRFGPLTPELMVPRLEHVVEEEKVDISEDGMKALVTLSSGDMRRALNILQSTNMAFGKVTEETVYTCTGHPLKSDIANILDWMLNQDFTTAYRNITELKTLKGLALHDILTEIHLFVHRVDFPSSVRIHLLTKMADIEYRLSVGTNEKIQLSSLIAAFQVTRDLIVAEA
# UniProt P27694, sequence (P27694 whole entry): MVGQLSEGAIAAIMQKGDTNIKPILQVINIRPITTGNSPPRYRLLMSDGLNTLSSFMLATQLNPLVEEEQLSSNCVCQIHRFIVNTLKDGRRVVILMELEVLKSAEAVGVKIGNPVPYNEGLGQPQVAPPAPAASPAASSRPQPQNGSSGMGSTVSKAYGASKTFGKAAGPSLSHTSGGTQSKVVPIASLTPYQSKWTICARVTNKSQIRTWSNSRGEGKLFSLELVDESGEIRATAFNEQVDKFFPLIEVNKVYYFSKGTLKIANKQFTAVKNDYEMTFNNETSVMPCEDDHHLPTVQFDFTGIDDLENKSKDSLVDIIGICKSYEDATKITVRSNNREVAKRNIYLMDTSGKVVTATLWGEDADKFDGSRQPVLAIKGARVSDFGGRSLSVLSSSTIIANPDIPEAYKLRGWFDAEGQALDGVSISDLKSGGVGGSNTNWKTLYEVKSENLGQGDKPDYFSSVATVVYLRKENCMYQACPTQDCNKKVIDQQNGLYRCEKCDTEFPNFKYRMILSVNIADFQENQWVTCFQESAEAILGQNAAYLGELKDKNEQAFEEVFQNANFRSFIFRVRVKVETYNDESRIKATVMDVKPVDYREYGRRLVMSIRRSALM
# UniProt P35250, sequence (P35250 whole entry): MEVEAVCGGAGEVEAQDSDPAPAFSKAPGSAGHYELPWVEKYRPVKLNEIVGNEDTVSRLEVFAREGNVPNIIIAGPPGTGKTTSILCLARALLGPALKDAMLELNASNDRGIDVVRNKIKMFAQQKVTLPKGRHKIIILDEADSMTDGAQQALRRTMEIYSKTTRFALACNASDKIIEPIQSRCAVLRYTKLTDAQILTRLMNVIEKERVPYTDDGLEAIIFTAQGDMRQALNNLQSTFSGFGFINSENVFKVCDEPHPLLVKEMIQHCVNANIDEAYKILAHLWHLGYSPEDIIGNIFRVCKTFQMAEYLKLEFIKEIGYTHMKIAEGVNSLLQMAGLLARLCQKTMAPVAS
sequence,measurement,setting,value
GCCGCCGCCCTTCTCGCGAGACTGCCGGGCC [CGCG bait],half-maximal binding,RFC1 (Homo sapiens),240 nM and 184 nM
same,half-maximal binding,RFC2 (Homo sapiens),210 nM
same,half-maximal binding,RFC4 (Homo sapiens),190 nM and 245 nM
same,half-maximal binding,RFC5 (Homo sapiens),213 nM
same,half-maximal binding,RPA1 (Homo sapiens),328 nM
same,half-maximal binding,RPL27 (Homo sapiens),464 nM
GAGAGCCCCGCCCCCTGGCT [SP/KLF bait],half-maximal binding,RAD23B (Homo sapiens),238 nM
GAGAGAAAATAAAACTGGCT [SP/KLF negative control bait],half-maximal binding,RAD23B (Homo sapiens),133 nM
same,half-maximal binding,RMI1 (Homo sapiens),219 nM
